# Assay results taken from the supplement of paper PMC4604168 (melanoma cell lines).
# The other results are listed elsewhere or left out. Single values are uncertain, as repeats are few or missing.
# Key:
# Test in all cases: cell count relative to DMSO control; melanoma cells; higher = more viable cells
# Conditions in all cases: library dose: low library concentration; 72 h
# [1] = system: MZ2-MEL
# [2] = system: MeWo
# [3] = system: RPMI7951
# [4] = system: RVH-421
# [5] = system: SkMel28
# [6] = system: SkMel30
# [7] = system: SkMel5
# [8] = system: UACC257
# [9] = system: UACC62
# [10] = system: SkMel2
# 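Further: cell number obtained by counting DAPI-stained nuclei in high-throughput microscope images with image analysis software, screen run in 1,536-well plates.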
Compound,cell count [1] [%],cell count [2] [%],cell count [3] [%],cell count [4] [%],cell count [5] [%],cell count [6] [%],cell count [7] [%],cell count [8] [%],cell count [9] [%],cell count [10] [%]
"Cc1ccc(NC(=O)c2cccc(N(C)C)c2)cc1NC(=O)c1ccc(O)cc1 + COc1ccc(COc2ccc(Cc3cnc(N)nc3N)cc2OC)cc1 [GW2580] (first compound 2 µM, partner dose 1 µM)",74.4,104,96.6,88.2,88.8,92.3,82.1,95.5,93.6,
"COc1cc2c(Oc3ccc4[nH]c(C)cc4c3F)ncnc2cc1OCCCN1CCCC1 [cediranib] + O=C(Nc1ccccc1)c1cc([N+](=O)[O-])ccc1Cl [GW9662] (first compound 0.4 µM, partner dose 2 µM)",101,90.8,98.4,94.9,87.7,93.7,104,103,87.9,
"CCCCCCCCc1ccc(CCC(N)(CO)CO)cc1 [fingolimod] + CC(=O)c1c(C)c2cnc(Nc3ccc(N4CCNCC4)cn3)nc2n(C2CCCC2)c1=O [palbociclib] (first compound 2 µM, partner dose 0.04 µM)",82.5,71.7,76,128,73.2,84.5,,,79.3,
"Cc1ccc(NC(=O)c2cccc(N(C)C)c2)cc1NC(=O)c1ccc(O)cc1 + O=S(=O)(c1ccccc1)N(CC(F)(F)F)c1ccc(C(O)(C(F)(F)F)C(F)(F)F)cc1 [T0901317] (first compound 2 µM, partner dose 1.4 µM)",72.4,97.7,88.4,85.1,91,84.2,90.9,99.9,92.1,
"Cc1ccc(NC(=O)c2cccc(N(C)C)c2)cc1NC(=O)c1ccc(O)cc1 + Oc1cc(-c2nc(-c3ccccc3)[nH]c2-c2ccncc2)ccc1Cl [L779450] (first compound 2 µM, partner dose 0.2 µM)",,111,98.3,77.9,73.4,104,89.8,71.7,65.4,
"CCc1ccc(CCOc2ccc(CC3SC(=O)NC3=O)cc2)nc1 (configuration not stated) [pioglitazone] + O=C(O)C(=O)Nc1sc2c(c1C(=O)O)CCNC2 [TCS401] (first compound 2 µM, partner dose 1.66667 µM)",,85.3,100,112,87.8,108,102,91.4,97.7,
"CC(C)(C)c1cnc(CSc2cnc(NC(=O)C3CCNCC3)s2)o1 + O=S(=O)(c1ccccc1)N(CC(F)(F)F)c1ccc(C(O)(C(F)(F)F)C(F)(F)F)cc1 [T0901317] (first compound 0.01 µM, partner dose 1.4 µM)",,88.7,79.3,96.4,78.1,91.9,78.3,76.8,83.7,
"CCCCCCCCc1ccc(CCC(N)(CO)CO)cc1 [fingolimod] + Cn1c(Nc2ccc(C(F)(F)F)cc2)nc2cc(Oc3ccnc(-c4ncc(C(F)(F)F)[nH]4)c3)ccc21 [CHIR265] (first compound 2 µM, partner dose 0.08 µM)",72.8,64.3,43.1,55.4,56.3,52.8,,,39,
"CCCCCCCCc1ccc(CCC(N)(CO)CO)cc1 [fingolimod] + O=C(CCCCCCC(=O)Nc1ccccc1)NO [vorinostat] (first compound 2 µM, partner dose 0.08 µM)",,109,80.7,96.8,80.5,93.1,86.5,99.4,93.3,92.9
"NC(=O)c1ccc(N(C(N)=O)c2c(F)cccc2F)nc1-c1ccc(F)cc1F + COCC[n+]1c2c(n(Cc3cnccn3)c1C)C(=O)c1ccccc1C2=O [YM155] (first compound 0.4 µM, partner dose 0.0004 µM)",,108,84.5,97.3,101,92,,,97.5,83
"CN(NC(=O)CC(=O)NN(C)C(=S)c1ccccc1)C(=S)c1ccccc1 + CCCCCCCCCCCC1=C(O)C(=O)C=C(O)C1=O [Embelin] (first compound 0.006 µM, partner dose 1.2 µM)",98.6,108,99.5,93.2,106,106,101,82,98.3,
"COc1cc2c(Oc3ccc4[nH]c(C)cc4c3F)ncnc2cc1OCCCN1CCCC1 [cediranib] + c1cc(-c2cnn3cc(-c4ccc(OCCN5CCCCC5)cc4)cnc23)ccn1 [Dorsomorphin] (first compound 0.4 µM, partner dose 0.4 µM)",,101,104,84.1,103,99.7,93.2,77.8,89.1,
"CN(NC(=O)CC(=O)NN(C)C(=S)c1ccccc1)C(=S)c1ccccc1 + CC(C)CCN1c2nc(Nc3cc(F)c(O)c(F)c3)ncc2N(C)C(=O)C1C [BID1870] (first compound 0.006 µM, partner dose 0.2 µM)",103,71.6,91.6,78.7,76.6,102,86.9,74.1,68.9,
"CCCCCCCCc1ccc(CCC(N)(CO)CO)cc1 [fingolimod] + CO[C@H]1C[C@@H]2CC[C@@H](C)[C@@](O)(O2)C(=O)C(=O)N2CCCC[C@H]2C(=O)O[C@H]([C@H](C)C[C@@H]2CC[C@@H](OCCO)[C@H](OC)C2)CC(=O)[C@H](C)/C=C(\C)[C@@H](O)[C@@H](OC)C(=O)[C@H](C)C[C@H](C)/C=C/C=C/C=C/1C [everolimus] (first compound 2 µM, partner dose 0.02 µM)",83.7,75.2,64.5,88.6,48.6,70.7,,,62,
"NC(=O)c1ccc(N(C(N)=O)c2c(F)cccc2F)nc1-c1ccc(F)cc1F + Oc1nc(-c2ccc(C(F)(F)F)cc2)nc2c1CSCC2 [XAV939] (first compound 0.4 µM, partner dose 2 µM)",,102,89.7,85.6,84.6,99.7,92.2,73.2,92.7,98.9
"CN(NC(=O)CC(=O)NN(C)C(=S)c1ccccc1)C(=S)c1ccccc1 + O=C(Nc1ccccc1)c1cc([N+](=O)[O-])ccc1Cl [GW9662] (first compound 0.006 µM, partner dose 2 µM)",93,78.4,94.3,108,88.3,93.6,103,97.8,80.6,
"Cc1ccc(NC(=O)c2cccc(N(C)C)c2)cc1NC(=O)c1ccc(O)cc1 + CC(C)(C)c1cnc(CSc2cnc(NC(=O)C3CCNCC3)s2)o1 [SNS-032] (first compound 2 µM, partner dose 0.01 µM)",,104,72.6,109,98.6,123,103,106,92.5,
"CN(NC(=O)CC(=O)NN(C)C(=S)c1ccccc1)C(=S)c1ccccc1 + O=S(=O)(c1ccccc1)N(CC(F)(F)F)c1ccc(C(O)(C(F)(F)F)C(F)(F)F)cc1 [T0901317] (first compound 0.006 µM, partner dose 1.4 µM)",99.1,86.7,99.9,89.6,77.7,96.1,83.5,92.2,87.7,
"CCCCCCCCc1ccc(CCC(N)(CO)CO)cc1 [fingolimod] + CN(c1ncccc1CNc1nc(Nc2ccc3c(c2)CC(=O)N3)ncc1C(F)(F)F)S(C)(=O)=O [PF562271] (first compound 2 µM, partner dose 0.08 µM)",,83.4,51,91.1,71.1,104,,,81.7,
"CN(NC(=O)CC(=O)NN(C)C(=S)c1ccccc1)C(=S)c1ccccc1 + c1cc(-c2cnn3cc(-c4ccc(OCCN5CCCCC5)cc4)cnc23)ccn1 [Dorsomorphin] (first compound 0.006 µM, partner dose 0.4 µM)",,96.7,86.6,73.8,80,98.8,88.5,70.7,87.7,
"NC(=O)c1ccc(N(C(N)=O)c2c(F)cccc2F)nc1-c1ccc(F)cc1F + CS(=O)(=O)c1ccc(C(=O)Nc2ccc(Cl)c(-c3ccccn3)c2)c(Cl)c1 [vismodegib] (first compound 0.4 µM, partner dose 1 µM)",,140,126,95.9,102,127,,,93.3,106
"COc1cc2c(Oc3ccc4[nH]c(C)cc4c3F)ncnc2cc1OCCCN1CCCC1 [cediranib] + N#Cc1c(O)c2c(-c3ccc(-c4ccccc4O)cc3)csc2[nH]c1=O [A769662] (first compound 0.4 µM, partner dose 2 µM)",96.2,110,102,116,90.7,95.4,103,87.2,95,
"CCCCCCCCc1ccc(CCC(N)(CO)CO)cc1 [fingolimod] + O=c1cc(-c2cccc3c2Sc2ccccc2S3)oc(N2CCOCC2)c1 [KU55933] (first compound 2 µM, partner dose 1 µM)",,89.8,95.4,103,70.5,85.2,107,88,77,
